Results on 46 molecules are retold here after the supplement of paper PMC11369174, “Proteome-scale characterisation of motif-based interactome rewiring by disease mutations” (Molecular Systems Biology, 2024).

The list shows a part of the results. This is a noisy data set.

USP7_MATH-TRAF__Q93009_53_206, sequence (chain, as listed by the source): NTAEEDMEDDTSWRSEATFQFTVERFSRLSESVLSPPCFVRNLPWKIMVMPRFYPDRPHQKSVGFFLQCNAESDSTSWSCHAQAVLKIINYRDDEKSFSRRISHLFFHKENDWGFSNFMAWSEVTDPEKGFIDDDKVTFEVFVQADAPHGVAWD

The first assay addresses USP7_MATH-TRAF__Q93009_53_206. Kind of assay: mutation enrichment score (mutant vs wild-type peptide binding to bait); baits are purified protein domains named by gene / domain / UniProt id / residues; peptides come from disordered regions of human proteins; higher = mutation enhances binding relative to wild type. To be noted: number of wild-type / mutant comparisons summed (bounds the score): 5; paper call: no_effect; wild-type window: ….
Turning to AAASPSAASPPLATAAAHTAMASASTTAPASSPADSPRPQA [I345M I345M], the mutation enrichment score worked out at 3.

With QREQQRAKELENRQKKLEHADRHLLLRIQELEMQARAHGLS [N385D N385D], the mutation enrichment score was -3.

Consider QREQQRAKELENRQKKLEHASRHLLLRIQELEMQARAHGLS [N385S N385S], for which the mutation enrichment score was -3.

For SVDYIRKLQREQQRAKELENGQKKLEHANRHLLLRIQELEM [R377G R377G], the mutation enrichment score is -3.

Regarding PSQPDPEHLDKPKLKAGGSVKSLRSSLSGQSSMSGQTVSTT [E509K E509K], the mutation enrichment score is -3.

Take SRLPPAREGHPVYPQLRPGYFPIPVLHEGAENRQVHPFHVY [I94F I94F]: the mutation enrichment score is -2.

LHHHHGSHCSSSGDPAEYNLHSRTVLCGTCGQPADKASASG [R582H R582H]: the mutation enrichment score was -2.9.

Regarding PPPSQPDPEHLDKPKLKAGGAVESLRSSLSGQSSMSGQTVS [S507A S507A], the mutation enrichment score was -3.

For LHTKTYQASSQPGSTSKDLTTNNIPHLLSPKEAKSKTEFDF [N399T N399T], the mutation enrichment score was 3.

Turning to VMGKASTPGAAAQIQEVKEQQISGLLVAVLVGLSILMEPIL [R760Q R760Q], the mutation enrichment score turned out to be 3.

For EHLDKPKLKAGGSVESLRSSPSGQSSMSGQTVSTTDSSTSN [L515P L515P], the mutation enrichment score is -2.3.

Regarding GAQVGGPISSGSSASSVTVTHSYRSVGGSGGGSFGDNLVTR [R624H R624H], the mutation enrichment score is 3.

MLAASFSIAVVAYAIAVSVGEVYATKYDYTIDGNQEFIAFG [K369E K369E]: the mutation enrichment score was 4.

The next assay has as its target Src_SH3__P12931_87_144. Described as above. As to conditions: number of wild-type / mutant comparisons summed (bounds the score): 6; paper call: no_effect; wild-type window: ….
Regarding SLLHSLSQNSSRLTTPRNSLALPSIPAGISNMAVGDMSSML [T1552A T1552A], the mutation enrichment score was -2.

With GPEDDLDLGPFSLPELPLQTEDAADGEAEPVEESLAPPEEM [K2146E K2146E], the mutation enrichment score is -5.

Consider GPEDDLDLGPFSLPELPLQTQDAADGEAEPVEESLAPPEEM [K2146Q K2146Q], for which the mutation enrichment score is -3.2.

Take APQPPFAQHPFVPGGPPPITLPTCPSTSTPPAGPGTSAQPP [P1049L P1049L]: the mutation enrichment score turned out to be 3.

As to HSLSQNSSRLTTPRNSLTLPPIPAGISNMAVGDMSSMLTSL [S1555P S1555P], the mutation enrichment score amounted to 4.

HLPEVQLPKVPEMKLPKMPEVAVPEVRLPEVQLPKVSEMKL [M673V M673V]: the mutation enrichment score is -1.7.

The same assay, now with this note: number of wild-type / mutant comparisons summed (bounds the score): 12; paper call: no_effect; wild-type window: ….
With SLLHSLSQNSSRLTTPRNSLSLPSIPAGISNMAVGDMSSML [T1552S T1552S], the mutation enrichment score was -1.

Another assay has as its target T1, SPOP_MATH__O43791_19_176.
T1 chain: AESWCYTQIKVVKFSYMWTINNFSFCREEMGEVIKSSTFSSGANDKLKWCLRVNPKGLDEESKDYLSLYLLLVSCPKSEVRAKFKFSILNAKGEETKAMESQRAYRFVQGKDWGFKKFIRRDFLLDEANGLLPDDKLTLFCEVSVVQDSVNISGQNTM
The assay is described as above. To be noted: number of wild-type / mutant comparisons summed (bounds the score): 12; paper call: no_effect; wild-type window: ….
On to VVSNNSSAHGSQRTSGPESSVKVTSSIPVFDLQDGGRKICP [M358V M358V], for which the mutation enrichment score was found to be 5.

As to IRKTEELLKKAKGNTEEDGVSSTSPMEVLDRLIQQGADAHS [P641S P641S], the mutation enrichment score was found to be 5.

The target of a further assay is T2, TLN1_PTB__Q9Y490_309_401.
T2 chain: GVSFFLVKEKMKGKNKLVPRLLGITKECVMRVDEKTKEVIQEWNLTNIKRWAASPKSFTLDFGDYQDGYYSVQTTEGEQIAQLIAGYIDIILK
The assay is described as above. To be noted: number of wild-type / mutant comparisons summed (bounds the score): 6; paper call: no_effect; wild-type window: ….
As to GLSEEETPLVDCNNAPLPRAVPSTWIENKLYGMSDPNWPGE [L1052V L1052V], the mutation enrichment score is -5.6.

Take RLVVLAIANTMDLPERIMMNWVSSRLGLTRMCFQPYTYSQL [R666W R666W]: the mutation enrichment score stood at 4.

Consider TETLALQRLGELGPPSPGLNLEQPQAARLSRTGLVEGLRKR [W3528L W3528L], for which the mutation enrichment score was 0.

Another assay has as its target T3, TLN2_PTB__Q9Y4G6_312_417.
T3 chain: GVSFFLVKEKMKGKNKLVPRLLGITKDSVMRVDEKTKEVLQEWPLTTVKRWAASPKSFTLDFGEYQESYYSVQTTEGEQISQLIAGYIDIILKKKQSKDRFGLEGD
Described as above. As to conditions: number of wild-type / mutant comparisons summed (bounds the score): 12; paper call: no_effect; wild-type window: ….
In the case of GLSEEETPLVDCNNAPLPRAVPSTWIENKLYGMSDPNWPGE [L1052V L1052V], the mutation enrichment score is -4.9.

For VMADLGERMVRENLKVWIYPKGTRNDNGDLLPFKKGAFYLA [E172K E172K], the mutation enrichment score is -4.

The target of the next assay is T4, TERF1_TRF__P54274_58_268.
T4 chain: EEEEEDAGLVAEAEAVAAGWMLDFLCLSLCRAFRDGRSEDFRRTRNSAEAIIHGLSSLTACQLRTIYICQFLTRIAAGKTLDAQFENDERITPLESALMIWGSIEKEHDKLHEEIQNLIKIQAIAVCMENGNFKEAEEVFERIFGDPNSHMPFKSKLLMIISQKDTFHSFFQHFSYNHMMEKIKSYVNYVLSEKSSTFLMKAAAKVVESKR
Described as above. As to conditions: number of wild-type / mutant comparisons summed (bounds the score): 12; paper call: diminished; wild-type window: ….
Regarding DFNELDLETLAPYIPMDGEDLQLSPICPEERLLAENPQSTP [F540L F540L], the mutation enrichment score is -7.

On to PKKEEAGGEFWGELEVQRVKILNYLSRNFYTLRFLALFLAF [F4552I F4552I], for which the mutation enrichment score was -11.

Still in this assay, the particulars now being: number of wild-type / mutant comparisons summed (bounds the score): 6; paper call: diminished; wild-type window: ….
As for GGEFWGELEVQRVKFLNYLSQNFYTLRFLALFLAFAINFIL [R4558Q R4558Q], the mutation enrichment score was -6.

GGEFWGELEVQRVKFLNYLSWNFYTLRFLALFLAFAINFIL [R4558W R4558W]: the mutation enrichment score is -6.

Staying with this assay, now noted: number of wild-type / mutant comparisons summed (bounds the score): 6; paper call: no_effect; wild-type window: ….
Take CSTQTDFNELDLETLAPYIPTDGEDFQLSPICPEERLLAEN [M535T M535T]: the mutation enrichment score is -4.

For CSTQTDFNELDLETLAPYIPVDGEDFQLSPICPEERLLAEN [M535V M535V], the mutation enrichment score was -4.

As for PRWHMNDFFHSFLIVFRVLCREWIETMWDCMEVAGQAMCLT [G950R G950R], the mutation enrichment score came to 0.

Consider RWKNVKVNFDNVGFGYLSLLLVATFKGWMDIMYAAVDSRNV [Q1427L Q1427L], for which the mutation enrichment score worked out at 0.

For RWKNVKVNFDNVGFGYLSLLPVATFKGWMDIMYAAVDSRNV [Q1427P Q1427P], the mutation enrichment score amounted to 3.

Take TQTDFNELDLETLAPYIPMDREDFQLSPICPEERLLAENPQ [G537R G537R]: the mutation enrichment score was -4.

Take TQTDFNELDLETLAPYIPMDWEDFQLSPICPEERLLAENPQ [G537W G537W]: the mutation enrichment score is -4.

As to EVEELSEPVLGDVRESTAFSGSLLPVKPVEIEIETPEQAKT [R155G R155G], the mutation enrichment score stood at 2.

As to LPRWHMNDFFHSFLIVFRVLYGEWIETMWDCMEVAGQAMCL [C949Y C949Y], the mutation enrichment score is 0.

As to QCSTQTDFNELDLETLAPYILMDGEDFQLSPICPEERLLAE [P534L P534L], the mutation enrichment score is 3.3.

A further assay has as its target T3, TLN2_PTB__Q9Y4G6_312_417. The assay is described as above. To be noted: number of wild-type / mutant comparisons summed (bounds the score): 6; paper call: no_effect; wild-type window: ….
On to AKLEAALGEAKKQLQDEMLRWVDAENRLQTMKEELDFQKNI [R190W R190W], for which the mutation enrichment score stood at 1.

The next assay deals with T2, TLN1_PTB__Q9Y490_309_401. The assay is described as above. To be noted: number of wild-type / mutant comparisons summed (bounds the score): 12; paper call: diminished; wild-type window: ….
Regarding LVITYGLNAGAFYALSTLLNHMVIWHYPGEEVNAGRIGLTI [R333H R333H], the mutation enrichment score is -7.

Consider LVITYGLNAGAFYALSTLLNLMVIWHYPGEEVNAGRIGLTI [R333L R333L], for which the mutation enrichment score was -7.

The target in another assay is T3, TLN2_PTB__Q9Y4G6_312_417. Described as above. As to conditions: number of wild-type / mutant comparisons summed (bounds the score): 12; paper call: diminished; wild-type window: ….
As to LVITYGLNAGAFYALSTLLNHMVIWHYPGEEVNAGRIGLTI [R333H R333H], the mutation enrichment score is -8.

As for LVITYGLNAGAFYALSTLLNLMVIWHYPGEEVNAGRIGLTI [R333L R333L], the mutation enrichment score is -8.

For a further assay, the target named is T4, TERF1_TRF__P54274_58_268. Described as above. To be noted: number of wild-type / mutant comparisons summed (bounds the score): 12; paper call: no_effect; wild-type window: ….
With DEATDGGGDNKEGEDSSVIHDDDKAIERLLDRNQDETEDTE [Y1249D Y1249D], the mutation enrichment score is -3.

Another assay deals with Src_SH3__P12931_87_144. The assay is described as above. As to conditions: number of wild-type / mutant comparisons summed (bounds the score): 12; paper call: diminished; wild-type window: ….
Take TLQKSKRPIPISTTAPPVQTSLPVIPHQKDPALDTNGSLVA [P99S P99S]: the mutation enrichment score was -6.

The target of another assay is T4, TERF1_TRF__P54274_58_268. The description is as above. To be noted: number of wild-type / mutant comparisons summed (bounds the score): 6; paper call: enhanced; wild-type window: ….
For the molecule PECPGPQLNTGTQLVLQHVQELLVKRFQHTIRSHKDFLAQI [A1357E A1357E], the mutation enrichment score turned out to be 6.
